Experimental data reported in PMC12040169 (PLOS Biology, 2025).
The list shows a part of the results.

The compounds below were run on T1, C. trachomatis L2/434/Bu expressing GFP (CTL2-GFP). Details: total inclusion area; 28.5 h, 10 µM; inhibitor.
T1 construct: L2/434/Bu GFP intracellular growth in HeLa cells
Set-up: species or system HeLa; C. trachomatis total inclusion area by high-content imaging, normalised to DMSO
Summary of the method: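 Following bulk GFP and resorufin fluorescence reads, infected cells were fixed, Hoechst-stained and imaged on a high-content platform. Inclusion total area and number per well served as growth proxies; nuclei counts indicated host viability. MICs were derived as for the fluorescence assay.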

Row | SMILES | % of control remaining
1 | COc1ccc2[nH]cc(CCNC3CCc4cccc(OC)c4C3)c2c1 (stereo not shown) [CBK016569C] | 46.3537
2 | CN(C)S(=O)(=O)N1CCN(c2ccc([N+](=O)[O-])c(NC3C4CC5CC(C4)CC3C5)c2)CC1 (stereo not shown) [CBK268986] | 95.0472
3 | Cc1nnc(Nc2ccc(F)cc2)c2ccccc12 [CBK287873] | 75.6538
4 | O=c1c2ccccc2[nH]c(=S)n1CCCN1CCOCC1 [CBK092141] | 83.4672
5 | COC1C(O)C(CO)OC1n1cc(C)c(N)nc1=O (stereo not shown) [CBK201227] | 83.689
6 | COc1cc2c(cc1OC)C1(CCOCC1)CNC2CC(c1ccccc1)c1ccccc1 (stereo not shown) [CBK014382] | 74.6945
7 | CN1CCC(CN(C)CC2CCCN(Cc3ccccc3)C2)C1 (stereo not shown) [CBK282946] | 88.3977
8 | Fc1ccc2[nH]c3c(c2c1)CCN1C(c2ccccn2)N2CCC31CC2 (stereo not shown) [CBK284431] | 74.7902
9 | CCOC(=O)C1CCN(S(=O)(=O)c2ccc(C(C)(C)C)cc2)CC1 [CBK051240] | 92.3169
10 | O=C(O)CCC(=O)N1c2ccccc2CC1c1ccccc1 (stereo not shown) [CBK286860] | 88.5628
11 | Cn1nc(CO)c2c1CCN(CC(=O)Nc1nc(C(C)(C)C)cs1)C2 [CBK307161] | 46.0844
12 | COc1ccc(CNC2CCCc3c2cnn3C)c(OC)c1 (stereo not shown) [CBK304875] | 44.3539
13 | CCc1ccc(CNC(=O)Cn2nnc(-c3ccc(CNC4CCOCC4)cc3)n2)cc1 [CBK161029C] | 27.297
14 | Cn1c(=O)c2c(ncn2CC(=O)Nc2cccnc2)n(C)c1=O [CBK133286] | 90.9774
15 | COc1ccc(CNS(=O)(=O)c2cc(OCC(N)=O)c(C)cc2Cl)cc1 [CBK266495] | 125.592
16 | Cc1ccnn1CCC(=O)N1CCCC1c1cc2cccnc2[nH]1 (stereo not shown) [CBK282230] | 82.6367
17 | CCN(C)c1c(C)nc2c(OCc3cccc(Cl)c3)cccn12 [CBK147310] | 70.3435
18 | COc1cc(/C=N/NC(=O)C2COc3ccccc3O2)cc([N+](=O)[O-])c1O (stereo not shown) [CBK261480] | 99.0173
19 | O=C(NC(c1ccccc1)c1ccsc1)C1CCN(S(=O)(=O)c2cccc(Cl)c2)CC1 (stereo not shown) [CBK060188] | 93.1873
20 | CN(CCN1CCCCC1=O)c1nccc(CCC(F)(F)F)n1 [CBK307218] | 80.8778
21 | CC(=O)N1CCc2cc(C)ccc2C12CCN(CCCOc1ccccc1)CC2 [CBK081064] | 92.0082
22 | CCN(CC1CCOCC1)C(=O)Cn1c(C)cc(=O)c2ccccc21 [CBK307230] | 50.2427
23 | CS(=O)(=O)NC1CCN(c2nc(C(F)(F)F)nc3ccsc23)CC1 [CBK304592] | 63.1438
24 | CC1(C)CC(NC2=CC(=O)CC2)CC(C)(C)N1 [CBK028997] | 42.0322
25 | COc1cc(CN2CCN(Cc3ccccc3)CC2)cc([N+](=O)[O-])c1O [CBK261574] | 97.085
26 | CCn1c(C)c(C)n2c3c(=O)n(CCN4CCOCC4)c(=O)n(C)c3nc12 [CBK269786] | 83.3191
27 | Cc1nc(C(F)(F)F)ccc1C(=O)NCCn1ccnc1C [CBK281982] | 107.512

Row | SMILES | % of control remaining
28 | N#CCc1c(-c2ccc(Br)cc2)nc2ccccn12 [CBK172896] | 113.701
29 | CN(C)CCCN(Cc1ccc2ncccc2c1)Cc1ccco1 [CBK283197] | 90.3206
30 | CCN1CCN(Cc2nc3c([nH]2)c(=O)n(C)c(=O)n3C)CC1 [CBK269413] | 89.3638
31 | O=C(NC(=O)c1ccc2ccccc2c1)Nc1ccc(Br)cc1 [CBK261735] | 85.7524
32 | O=C(NCC1CCCO1)c1ccc(NC(=O)C2C3C=CC(C3)C2C(=O)O)cc1 (stereo not shown) [CBK266317] | 107.042
33 | C(=N\c1ccc2c(c1)OCCOCCOc1cc(/N=C/c3ccccc3)ccc1OCCOCCO2)/c1ccccc1 [CBK261388] | 97.6923
34 | Cc1csc2c(C3CCN(C(=O)c4cc[nH]n4)CC3)nc(C)n12 [CBK285245] | 106.038
35 | O=C(CN1CCC(c2ccccc2F)CC1)N1CCCCC1 [CBK283577] | 88.8797
36 | Cc1nn(CC(=O)N2CCCC(C)C2)c(=O)c2cc3occc3n12 (stereo not shown) [CBK283623] | 80.3778
37 | Cc1nn(CC(=O)N2CCCCCC2)c(=O)c2cc3ccsc3n12 [CBK284060] | 85.8088
38 | CCN(CC)C(=O)CN(CCc1ccc(OC)c(OC)c1)C(=O)NCCCSC [CBK158725] | 96.125
39 | Clc1ccc(Nc2nnns2)cc1Cl [CBK005211] | 88.36
40 | Cc1cc(C(=O)NCC[S+](C)[O-])c(-n2cccc2)s1 (stereo not shown) [CBK283305] | 95.3884
41 | Cc1cc(O)n(-c2cc(-c3ccccc3)nc(-c3ccccc3)n2)n1 [CBK262014] | 109.32
42 | CCc1nc2ccc(C(=O)NCCc3c[nH]c4ccccc34)cn2c1N(C)Cc1ccncc1 [CBK145636] | 95.7513
43 | N=C(N)NS(=O)(=O)c1ccc(N/C=C\C(=O)c2ccncc2)cc1 [CBK264185] | 113.021
44 | COc1cccc(CSc2ccc(CN3CCOCC3)cc2F)c1 [CBK174976] | 72.5156
45 | COCCCN1C(=O)c2[nH]nc(-c3cc(C)c(C)cc3O)c2C1c1ccc(SC)cc1 (stereo not shown) [CBK268884] | 84.1139
46 | O=C(CCSCc1nc2sc3c(c2c(=O)[nH]1)CCC3)N1CCC1 [CBK304536] | 92.3409
47 | CC(C)C(=O)N1CCC[C@@H](Cn2nc(-c3cccs3)ccc2=O)C1 [CBK282317] | 101.538
48 | O=C(NC1CCS(=O)(=O)C1)c1cc2ccc(OC(F)(F)F)cc2[nH]1 (stereo not shown) [CBK305754] | 79.3107
49 | Cc1ccc(NC(=O)C2CC=CCC2C(=O)O)cc1NC(=O)c1ccc(Cl)cc1 (stereo not shown) [CBK268980] | 92.7492
50 | Cc1ccc(C)c(C2C(C(=O)c3ccccc3Cl)=C(O)C(=O)N2c2ccc(CC(=O)O)cc2)c1 (stereo not shown) [CBK297723] | 69.8636
51 | O=C(CSc1ncn[nH]1)Nc1ncccn1 [CBK058488] | 69.1952
52 | CCn1c(SCC(=O)O)nnc1-c1ccco1 [CBK068633] | 102.227
53 | CCOC(=O)C(CNS(=O)(=O)c1ccc(F)cc1C)Cc1ccccc1 (stereo not shown) [CBK305427] | 86.9905
54 | Cc1ccc(NC(=S)NCCc2ccc(S(N)(=O)=O)cc2)c(C)c1 [CBK264870] | 109.764

Row | SMILES | % of control remaining
55 | CN(CC(=O)Nn1cnnc1)S(=O)(=O)c1ccc(Br)cc1 [CBK268597] | 93.3504
56 | CC(=O)Nc1cccc(-c2nccnc2NS(C)(=O)=O)c1 [CBK050740] | 103.926
57 | O=C(Cn1cccc2cc(C3CCCNC3)nc1-2)N1CCCCCC1 (stereo not shown) [CBK285088] | 110.221
58 | CCOC(=O)C1CCCN(C(=O)CCn2c(=O)oc3cc(Cl)ccc32)C1 (stereo not shown) [CBK304516] | 71.9784
59 | Cc1nc2n(n1)C(C(=O)Nc1ccc(C)c(C)c1)CC(=O)N2 (stereo not shown) [CBK288223] | 92.6834
60 | Cc1nc(C)n(CCCNc2cc(C(C)C)nc3ccnn23)n1 [CBK307497] | 19.1271
61 | O=C(CCN1CCc2ccccc2C1)Nc1ccccc1F [CBK264202] | 103.04
62 | O=C(NCc1ccc(C(F)(F)F)cc1)[C@@H]1Cc2[nH]cnc2CN1C1CCOCC1 [CBK288981] | 112.693
63 | Cc1occc1-c1nnc(SC2CCCCN(C(=O)c3ccc(Cl)cc3)C2=O)n1C (stereo not shown) [CBK296990] | 111.329
64 | Cc1ncsc1C(=O)N1CCNCC1c1cccc(F)c1 (stereo not shown) [CBK305463] | 80.3741
65 | O=C(O)/C(Cl)=C(\Cl)C(=O)N1CCC2(CC1)OCCc1c2[nH]c2ccccc12 [CBK047035] | 101.835
66 | CS(=O)(=O)c1ccc(-c2ccc3ccc(=O)[nH]c3n2)cc1 [CBK073719] | 106.031
67 | Cc1cc(CNS(=O)(=O)c2cccc3nonc23)nn1C [CBK062157] | 90.8401
68 | COC(=O)c1sc(N2CCOCC2)c(C#N)c1N [CBK006430] | 60.0142
69 | COc1cc(C2NC(=O)NC(O)(C(F)(F)F)C2C(=O)c2ccccc2)ccc1OCc1ccccc1 (stereo not shown) [CBK264957] | 100.725
70 | C=CCNC(=O)CSc1nc(O)cc(=O)[nH]1 [CBK073298] | 89.8918
71 | O=C(O)c1cccc(Nc2nc(-c3ccccc3)nc3ccccc23)c1 [CBK263941C] | 109.924
72 | O=C(O)c1cccc(-c2ccc(/C=C3\SC(=S)N(Cc4ccco4)C3=O)o2)c1 [CBK265726] | 77.7192
73 | O=C(c1ccoc1)N1CCN(S(=O)(=O)c2ccc3c(c2)Cc2cc(S(=O)(=O)N4CCN(C(=O)c5ccco5)CC4)ccc2-3)CC1 [CBK262299] | 98.3315
74 | Cc1ccc2cc(CN(Cc3cccs3)C(=O)NCc3ccccc3)c(=O)[nH]c2c1C [CBK068496] | 90.1518
75 | O=C(Cn1cc(-c2ccc(CN3CCCCC3)cc2)nn1)NCc1ccc(Cl)cc1Cl [CBK167689] | 99.88
76 | CS(=O)(=O)N1CC2(CCN(CC(=O)c3ccsc3)CC2)c2ccccc21 [CBK144595T] | 104.634
77 | CC(C)[C@H](CO)Nc1cncc(-c2ccc(F)cc2F)n1 [CBK065883] | 97.6467
78 | Cn1c(-c2ccccc2)cnc1NC(=O)C1CN(S(=O)(=O)c2ccc(F)cc2)C1 [CBK285945] | 98.7133
79 | COc1ccc([C@H]2CN(C(=O)c3ccccn3)[C@@H]3CCCN(C(C)=O)[C@H]23)cc1 [CBK285523] | 95.2071
